Test results published in the supplement of paper PMC4604168 (melanoma cell lines).
This is one part of the list. Single values are uncertain, as repeats are few or missing.

Experiments:
Assay in all cases: cell count relative to DMSO control; melanoma cells; higher = more viable cells
Details in all cases: library dose: standard library concentration; 72 h
G361 = system: G361
IPC-298 = system: IPC-298
IST-MEL1 = system: IST-MEL1
LB2518-MEL = system: LB2518-MEL
LOXIMVI = system: LOXIMVI
MEL-HO = system: MEL-HO
MZ2-MEL = system: MZ2-MEL
MeWo = system: MeWo
RPMI7951 = system: RPMI7951
RVH-421 = system: RVH-421
SkMel28 = system: SkMel28
SkMel2 = system: SkMel2
SkMel30 = system: SkMel30
SkMel5 = system: SkMel5
UACC257 = system: UACC257
UACC62 = system: UACC62
WM115 = system: WM115
WM1716 = system: WM1716
WM1745 = system: WM1745
WM3526 = system: WM3526
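Note: cells treated in 1,536-well plates, then fixed and DAPI-stained, with nuclei counted from automated high-throughput microscope images.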

| SMILES | cell count (G361) | cell count (IPC-298) | cell count (IST-MEL1) | cell count (LB2518-MEL) | cell count (LOXIMVI) | cell count (MEL-HO) | cell count (MZ2-MEL) | cell count (MeWo) | cell count (RPMI7951) | cell count (RVH-421) | cell count (SkMel28) | cell count (SkMel2) | cell count (SkMel30) | cell count (SkMel5) | cell count (UACC257) | cell count (UACC62) | cell count (WM115) | cell count (WM1716) | cell count (WM1745) | cell count (WM3526) |
| --- | --- | --- | --- | --- | --- | --- | --- | --- | --- | --- | --- | --- | --- | --- | --- | --- | --- | --- | --- | --- |
| Nc1ccn([C@@H]2O[C@H](CO)[C@@H](O)C2(F)F)c(=O)n1 [gemcitabine] + CN(NC(=O)CC(=O)NN(C)C(=S)c1ccccc1)C(=S)c1ccccc1 [STA4783] (first compound 0.002 µM, partner dose 0.03 µM) | 20.9% | 38.2% | 15.3% | 16.4% | 48.9% | 60.7% | 87% | 15.6% | 55.8% | 47.4% | 19.9% | 73.7% | 95.3% | 74.1% | 91.4% | 38.4% | 24.8% | 63.9% | 37.6% | 100% |
| CC(=O)c1c(C)c2cnc(Nc3ccc(N4CCNCC4)cn3)nc2n(C2CCCC2)c1=O [palbociclib] + COCC[n+]1c2c(n(Cc3cnccn3)c1C)C(=O)c1ccccc1C2=O [YM155] (first compound 0.2 µM, partner dose 0.002 µM) | 50.6% | 31.2% | 35% | 24.5% | 49.4% | 64% | 23.9% | 30.5% | 58.2% | 82.1% | 23.5% | 32.1% | 43.5% | 32.5% | 26.8% | 47% | 49.9% | 47.1% | 74.1% | 32.5% |
| Nc1ncn([C@H]2C[C@H](O)[C@@H](CO)O2)c(=O)n1 [decitabine] + CC(C)(C)c1cnc(CSc2cnc(NC(=O)C3CCNCC3)s2)o1 [SNS-032] (first compound 0.5 µM, partner dose 0.05 µM) | 70.1% | 60.4% | 75.1% | 71.7% | 56.6% | 83.9% | 63.6% | 71.8% | 20.2% | 64.9% | 62.3% | 77.5% | 73.3% | 66.9% | 94.5% | 56.9% | 88.9% | 63.4% | 95.6% | 89.5% |
| Nc1ccn([C@@H]2O[C@H](CO)[C@@H](O)C2(F)F)c(=O)n1 [gemcitabine] + OCc1c[nH]c2ccccc12 [Indole-3-carbinol] (first compound 0.002 µM, partner dose 4 µM) | 40.9% | 48.2% | 42.9% | 54.8% | 49.5% | 51% | 76.7% | 32.8% | 61.5% | 51.2% | 76% | 84.4% | 92.1% | 92.6% | 104% | 124% | 70.4% | 69.4% | 53.3% | 87.8% |
| Nc1ncn([C@H]2C[C@H](O)[C@@H](CO)O2)c(=O)n1 [decitabine] + COc1cc2c(Oc3ccc4[nH]c(C)cc4c3F)ncnc2cc1OCCCN1CCCC1 [cediranib] (first compound 0.5 µM, partner dose 2 µM) | 84.4% | 71% | 86.6% | 84.7% | 61.4% | 78.7% | 86.6% | 78.6% | 104% | 416% | 105% | 88.3% | 92.5% | 74.3% | 96.5% | 86.7% | 84.1% | 108% | 99.6% | 78.4% |
| CC(=O)O[C@@]12CO[C@@H]1C[C@H](O)[C@@]1(C)C(=O)[C@H](O)C3=C(C)[C@@H](OC(=O)[C@H](O)[C@@H](NC(=O)OC(C)(C)C)c4ccccc4)C[C@@](O)([C@@H](OC(=O)c4ccccc4)[C@H]21)C3(C)C [Docetaxel] + Cc1nc(Nc2ncc(C(=O)Nc3c(C)cccc3Cl)s2)cc(N2CCN(CCO)CC2)n1 [dasatanib] (first compound 0.0005 µM, partner dose 0.02 µM) | 13.6% | 46.9% | 25.7% | 35% | 24.9% | 31.6% | 26.1% | 31.9% | 25.8% | 38.9% | 17.7% | 21.3% | 47.8% | 30% | 52.2% | 39.1% | 38.9% | 34% | 12.2% | 42.1% |
| CC(=O)O[C@@]12CO[C@@H]1C[C@H](O)[C@@]1(C)C(=O)[C@H](O)C3=C(C)[C@@H](OC(=O)[C@H](O)[C@@H](NC(=O)OC(C)(C)C)c4ccccc4)C[C@@](O)([C@@H](OC(=O)c4ccccc4)[C@H]21)C3(C)C [Docetaxel] + Nc1ncn([C@H]2C[C@H](O)[C@@H](CO)O2)c(=O)n1 [decitabine] (first compound 0.0005 µM, partner dose 0.5 µM) | 14.6% | 38.9% | 39.5% | 35% | 48.6% | 37.2% | 38.4% | 25.8% | 29.7% | 90.7% | 15.6% | 22.8% | 62.5% | 38.2% | 61.2% | 57.5% | 34.7% | 33.5% | 41.8% | 36.4% |
| CO[C@H]1C[C@@H]2CC[C@@H](C)[C@@](O)(O2)C(=O)C(=O)N2CCCC[C@H]2C(=O)O[C@H]([C@H](C)C[C@@H]2CC[C@@H](OCCO)[C@H](OC)C2)CC(=O)[C@H](C)/C=C(\C)[C@@H](O)[C@@H](OC)C(=O)[C@H](C)C[C@H](C)/C=C/C=C/C=C/1C [everolimus] + O=C(O)c1ccc2c(c1)nc(Nc1cccc(Cl)c1)c1ccncc12 [CX4945] (first compound 0.1 µM, partner dose 2 µM) | 49.6% | 55.8% | 64.3% | 77.6% | 29.6% | 39.7% | 46.1% | 73.4% | 59.7% | 57.4% | 40.7% | 57% | 67.8% | 64.5% | 85% | 83.3% | 74.8% | 90% | 83.1% | 70.1% |
| CC(=O)c1c(C)c2cnc(Nc3ccc(N4CCNCC4)cn3)nc2n(C2CCCC2)c1=O [palbociclib] + O=C(Nc1cccc(Cl)c1)Nc1ncc(CCNc2ncnc3ccsc23)s1 [SNS314] (first compound 0.2 µM, partner dose 0.004 µM) | 58.9% | 73.2% | 59.7% | 57.3% | 77.8% | 63% | 65.9% | 46% | 70.1% | 49.5% | 43% | 55% | 84% | 52.3% | 53.7% | 77.8% | 44.1% | 40.8% | 67% | 45.4% |
| CO[C@H]1C[C@@H]2CC[C@@H](C)[C@@](O)(O2)C(=O)C(=O)N2CCCC[C@H]2C(=O)O[C@H]([C@H](C)C[C@@H]2CC[C@@H](OCCO)[C@H](OC)C2)CC(=O)[C@H](C)/C=C(\C)[C@@H](O)[C@@H](OC)C(=O)[C@H](C)C[C@H](C)/C=C/C=C/C=C/1C [everolimus] + C#Cc1cccc(Nc2ncnc3cc(OCCOC)c(OCCOC)cc23)c1 [erlotinib] (first compound 0.1 µM, partner dose 4 µM) | 46% | 37.8% | 63.6% | 49.8% | 72.1% | 56.9% | 60.1% | 46.5% | 52.3% | 87.4% | 36% | 59.8% | 53.2% | 41.5% | 95.3% | 51.8% | 48.1% | 71.1% | 65.1% | 52.4% |
| Nc1ncn([C@H]2C[C@H](O)[C@@H](CO)O2)c(=O)n1 [decitabine] + C=CCNC1=C2C[C@@H](C)C[C@H](OC)[C@H](O)[C@@H](C)/C=C(\C)[C@H](OC(N)=O)[C@@H](OC)/C=C\C=C(/C)C(=O)NC(=CC1=O)C2=O [Tanespimycin] (first compound 0.5 µM, partner dose 0.01 µM) | 63.9% | 67.3% | 42.8% | 95% | 82.6% | 76.6% | 81% | 52.1% | 15.7% | 75.7% | 59.9% | 97.1% | 106% | 63.1% | 103% | 53.4% | 27.1% | 62.2% | 51.5% | 69.6% |
| CC(=O)O[C@@]12CO[C@@H]1C[C@H](O)[C@@]1(C)C(=O)[C@H](O)C3=C(C)[C@@H](OC(=O)[C@H](O)[C@@H](NC(=O)OC(C)(C)C)c4ccccc4)C[C@@](O)([C@@H](OC(=O)c4ccccc4)[C@H]21)C3(C)C [Docetaxel] + Clc1ccc(Nc2nnc(Cc3ccncc3)c3ccccc23)cc1 [vatalanib] (first compound 0.0005 µM, partner dose 10 µM) | 17.4% | 31% | 50.8% | 48.9% | 57.2% | 47.1% | 45.2% | 28.1% | 23.4% | 52% | 26.5% | 21.2% | 56.9% | 38.9% | 70.2% | 50.9% | 51.1% | 43.6% | 21.1% | 50.7% |
| Nc1ncn([C@H]2C[C@H](O)[C@@H](CO)O2)c(=O)n1 [decitabine] + Cn1nnc2c(C(N)=O)ncn2c1=O [temozolomide] (first compound 0.5 µM, partner dose 10 µM) | 75.4% | 53.6% | 65.6% | 76.5% | 60.3% | 69.5% | 66.3% | 74.7% | 60.8% | 81% | 43.3% | 122% | 68% | 81.9% | 103% | 65.8% | 82.8% | 54.2% | 111% | 119% |
| Nc1ccn([C@@H]2O[C@H](CO)[C@@H](O)C2(F)F)c(=O)n1 [gemcitabine] + Cn1c(Nc2ccc(C(F)(F)F)cc2)nc2cc(Oc3ccnc(-c4ncc(C(F)(F)F)[nH]4)c3)ccc21 [CHIR265] (first compound 0.002 µM, partner dose 0.4 µM) | 15.5% | 30.2% | 54.4% | 30.2% | 55% | 49.2% | 63.7% | 36.6% | 56.7% | 69.1% | 36.8% | 67% | 70.1% | 37.3% | 87.3% | 47.8% | 39.7% | 64.3% | 63.7% | 53.8% |
| Nc1nc(F)nc2c1ncn2[C@@H]1O[C@H](CO)[C@@H](O)[C@@H]1O [fludarabine] + Cc1ccc(NC(=O)c2cccc(N(C)C)c2)cc1NC(=O)c1ccc(O)cc1 [ZM336372] (first compound 1 µM, partner dose 10 µM) | 101% | 87.4% | 67.4% | 98% | 98.2% | 83.4% | 115% | 101% | 71.1% | 82.2% | 3.2% | 1.35% | 21.7% | 32.9% | 39.3% | 68.8% | 75.1% | 114% | 74.5% | 28.4% |
